{"source": "ChEMBL document CHEMBL1201862", "about": "“PubChem BioAssay data set” (2004)", "note": "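These data come from cells grown in 96-well plates and exposed to compound for 48 hours at five concentrations. GI50 = concentration required for 50% inhibition of growth.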 Activity calls are given as the source filed them. Cut-off read from the data, not from the text of the source: active = GI50 up to about 1.1 µM and inactive = higher."}
{"test_system": "NCI-H322M", "assay": "inhibition of tumour cell growth, NCI panel, 48 h"}
{"smiles": "C/C(CC(=O)Nc1ccccc1)=N\\NC(N)=S", "GI50": "inactive: > 100 µM"}
{"smiles": "NC1=C(N2CCOCC2)C(=O)NC2=N/C(=C\\c3ccccc3)C(=O)N21", "GI50": "inactive: > 100 µM"}
{"smiles": "COC(=O)CCc1ccc2c(c1)C(=O)CC2", "GI50": "inactive: > 100 µM"}
{"smiles": "O=C(C[N+]1(c2ccccc2)CCOCC1)c1ccccc1", "GI50": "inactive: > 100 µM"}
{"smiles": "CC1(C)CC(=O)C(=CNC(=O)c2ccncc2)C(=O)C1", "GI50": "inactive: > 100 µM"}
{"smiles": "CC(=O)OCC1OC(Nn2c(=O)[nH]c3ccccc3c2=O)C(OC(C)=O)C(OC(C)=O)C1OC(C)=O", "note": "(stereo unspecified)", "GI50": "inactive: > 100 µM"}
{"smiles": "O=c1[nH]nc(-c2ccccc2)n1/N=C/c1ccc([N+](=O)[O-])o1", "GI50": "inactive: 7.35 µM"}
{"smiles": "C[C@H](c1ccccc1)n1c(N)c(-c2nc3ccccc3s2)c2ccc([N+](=O)[O-])cc2c1=O", "GI50": "inactive: 3.07 µM"}
{"smiles": "O=C1NC(=O)C(c2c[nH]c3cc(Br)ccc23)=C1c1cn(C(c2ccccc2)(c2ccccc2)c2ccccc2)cn1", "GI50": "inactive: 18 µM"}
{"smiles": "Nc1cc(Cl)ccc1SSc1ccc(Cl)cc1N", "GI50": "inactive: 15.2 µM"}
{"smiles": "O=C(NNCc1ccco1)c1cc2ccccc2[nH]1", "GI50": "inactive: > 94 µM"}
{"smiles": "COC(=O)c1ccc2cc(O)c(O)cc2c1", "GI50": "inactive: 50.4 µM"}
{"smiles": "O=c1[nH]c(=O)n(C2CC(O)C(CO)O2)cc1OCCCc1ccccc1", "note": "(stereo unspecified)", "GI50": "inactive: > 100 µM"}
{"smiles": "C[C@@H]1C[C@@H]2OC(=O)[C@]3(C)[C@H]2[C@@H](OC3(C)O)[C@]2(C)C(=O)C=C[C@@H]12", "note": "(stereo partly specified) [TENULIN]", "GI50": "inactive: > 100 µM"}
{"smiles": "CCOC(=O)c1ccc2c(c1)Cc1cc([N+](=O)[O-])ccc1-2", "GI50": "inactive: 92 µM"}
{"smiles": "CC(=O)O[C@H]1C[C@@H](OC(C)=O)[C@@](C)(O)[C@@H]2[C@@H](OC(C)=O)[C@@]3(O)[C@H](/C=C(/CO)[C@H]4O[C@H]4[C@@H](OC(C)=O)[C@@]12C)OC(=O)[C@@H]3C", "GI50": "inactive: > 25 µM"}
{"smiles": "Nc1ncnc2c1ncn2[C@]1(CO)C=C(CO)C(O)C1O", "note": "(stereo partly specified)", "GI50": "inactive: > 100 µM"}
{"smiles": "COc1ccc2c(=O)c(C)c(-c3ccccc3)oc2c1CN(C)C", "note": "[DIMEFLINE]", "GI50": "inactive: > 100 µM"}
{"smiles": "Cc1c(/C=N/NS(=O)(=O)c2ccccc2)no[n+]1[O-]", "GI50": "inactive: > 100 µM"}
{"smiles": "COc1ccc2c(c1)CC1Cc3ccccc3CCN1C2", "note": "(stereo unspecified)", "GI50": "inactive: 41.6 µM"}
{"smiles": "COc1cccc2c1C(=O)C(=O)c1c-2oc(=O)c2cc(C)cc(OC)c12", "GI50": "inactive: 69.2 µM"}
{"smiles": "CC1CC2OC(=N)C1(C#N)C2(C#N)C#N", "note": "(stereo unspecified)", "GI50": "inactive: 58.6 µM"}
{"smiles": "c1ccc(CN2C3C4N(Cc5ccccc5)C2C2N(Cc5ccccc5)C(C(N2Cc2ccccc2)N4Cc2ccccc2)N3Cc2ccccc2)cc1", "GI50": "inactive: > 100 µM"}
{"smiles": "CC[C@@H]1OC2(C)CC(S(=O)(=O)c3ccccc3)CC1O2", "note": "(stereo partly specified)", "GI50": "inactive: > 100 µM"}
{"smiles": "Cc1ccc(S(=O)(=O)OCOS(=O)(=O)c2ccc(C)cc2)cc1", "GI50": "inactive: > 100 µM"}
{"smiles": "COc1cc2c(cc1OC)C1Cc3cc(OC)c(OC)cc3N1CC2", "note": "(stereo unspecified)", "GI50": "inactive: 51.2 µM"}
{"smiles": "O=S(=O)(O)C(F)(F)C(F)(F)C(F)(F)C(F)(F)F", "GI50": "inactive: > 100 µM"}
{"smiles": "CC(C)=CCC[C@@H](C)C1=C(O)C(=O)C(C)=C(Nc2ccccc2F)C1=O", "GI50": "inactive: 18.5 µM"}
{"smiles": "Cn1c(=O)c2c(nc(C[N+]3([O-])CCOCC3)n2C)n(C)c1=O", "GI50": "inactive: > 100 µM"}
{"smiles": "CC(C)CCNC(=O)c1ccc(CNC(=O)/C=C/c2ccc(OCc3ccccc3)cc2)cc1", "GI50": "inactive: > 100 µM"}
{"smiles": "CCOC(=O)C[C@@]12CCCN[C@]1(C)CCc1ccccc12", "GI50": "inactive: > 100 µM"}
{"smiles": "COc1ccc(C2Oc3c(cccc3OC)C=C2[N+](=O)[O-])cc1", "note": "(stereo unspecified)", "GI50": "inactive: 3.27 µM"}
{"smiles": "CC(=O)N/N=C1\\CC(C)(C)C2CCC1C2", "note": "(stereo unspecified)", "GI50": "inactive: > 100 µM"}
{"smiles": "CN/N=C(\\C(=O)Nc1ccc(C)c(C)c1)C(C(=O)OC)c1nc2ccc([N+](=O)[O-])cc2nc1O", "note": "(stereo unspecified)", "GI50": "inactive: > 100 µM"}
{"smiles": "COc1ccc(CCN(C)C2CCC(C#N)(c3ccc(OC)c(OC)c3)CC2)cc1OC", "note": "(stereo unspecified)", "GI50": "inactive: > 100 µM"}
{"smiles": "O=C1/C(=C/c2cccnc2)C(n2cccc2)c2c(Br)sc(Br)c21", "note": "(stereo unspecified)", "GI50": "inactive: 1.97 µM"}
